Source: PubChem BioAssay AID686979 (National Center for Advancing Translational Sciences (NCATS), 2013)
The whole screen tested about 420,000 compounds, of which about 50,000 (12%) were called active. The shares of active, inactive and inconclusive entries below differ from those in the screen. The call rests on the fitted dose curve; in most records, active means well fitted inhibition curve with a large enough effect; inconclusive means small, poorly fitted or top-dose-only effect; inactive means flat fitted curve, though single readings scatter. Potencies of inconclusive entries are left out as doubtful fits.

Assay: qHTS for Inhibitors of human tyrosyl-DNA phosphodiesterase 1 (TDP1): qHTS in cells in presence of CPT; further: nearly all actives have a fitted effect of over 55% in size
Settings: chicken DT40 Tdp1-/-;hTDP1 cells + 20 nM CPT, ATP luminescence, 48 h; activity change, negative = growth inhibition: at 46.2 µM (top of the series) unless noted
How it was run: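 Chicken DT40 Tdp1-/- cells stably complemented with human TDP1 were seeded at 400 cells/well in medium containing 20 nM camptothecin, exposed to pin-transferred compounds, and grown at 37 °C for at least 48 hr. Viability was read as ATP luminescence.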
On the % scale 0 is the no-effect control and ±100 the full control effect; potency means the concentration at half of the fitted maximal effect; tags describe the fitted curve by direction and shape.

SMILES	Potency	activity change, negative = growth inhibition
CCCCCC(=O)Nc1nc(C)c(-c2csc(Nc3ccccc3OCC)n2)s1	inconclusive [inhibitor, single point]	–
CC(NC(=S)Nc1ccc([N+](=O)[O-])cc1)c1ccncc1 (stereo not drawn)	inconclusive [inhibitor, single point]	–
S=C(NCc1ccc(Cl)cc1)NC1CCN(Cc2ccccc2)CC1	active: 18.4 µM	–
CCOc1ccc(S(=O)(=O)N2CCN(C)CC2)cc1NC(=O)c1ccccc1F	inconclusive [inhibitor, partial curve, poor fit]	–
CCc1c(C)nc(Nc2nc(C)c3ccc(OC)cc3n2)[nH]c1=O	inconclusive [inhibitor, single point]	–
CC#CC(=O)N1CCC(C(=O)Nc2ccc(Oc3ccccc3)nc2)CC1	inconclusive [inhibitor, single point]	–
CC(=O)N1CCc2c(sc3c2c(=O)n(CCc2ccccc2)c(=O)n3Cc2ccc(F)cc2)C1	active: 18.4 µM	–
CC(CN1CCOCC1)OC(=O)c1ccc(C(C)(C)C)cc1 (stereo not drawn)	inconclusive [inhibitor, single point]	–
Cc1nc(SCC(=O)NCC2CCCO2)nc(C)c1C (stereo not drawn)	–	inactive: 6.66%
CC(=O)c1ccc(NC(=O)NC2CCCCCCC2)cc1	inconclusive [inhibitor, single point]	–
CCN(CC)C(=O)CSc1nnc(-c2cc(-c3ccc(Cl)cc3)nc3ccccc23)o1	–	inactive: -67.7%
Nc1ccc(C(=O)NN2C(=O)[C@H](Cl)C2c2ccc(Cl)cc2)cc1 (stereo partly drawn)	active: 3.66 µM	–
COc1ccc(CCNC(=O)C(=O)NCCC2CCCCN2S(=O)(=O)c2cccs2)cc1 (stereo not drawn)	inconclusive [inhibitor, single point]	–
O=C1C2C3C=CC([C@@H]2C(=O)N1C1CCCCC1)[C@H]1C(=O)N(C2CCCCC2)C(=O)C31 (stereo partly drawn)	inconclusive [inhibitor, partial curve]	–
COc1cc(NC(=NS(=O)(=O)c2ccccc2)c2ccccc2)ncn1	–	inconclusive: -30.8% [inhibitor]
Cc1ccc2nc3c(cc2c1)CN(Cc1ccco1)C(=NCC1CCCO1)S3 (stereo not drawn)	inconclusive [inhibitor, single point]	–
CC(/C=C1\SC(=S)N(C(C(=O)O)C(C)C)C1=O)=C\c1ccccc1 (stereo not drawn)	–	inactive: -2.09%
O=C(Nc1nc(-c2ccc(S(=O)(=O)N3CCCC3)cc2)cs1)C1COc2ccccc2O1 (stereo not drawn)	active: 9.2 µM	–
COc1ccc(OC)c(-n2c(SCC(=O)N3CCc4ccccc43)nc3c(c2=O)SCC3)c1	inconclusive [inhibitor, partial curve, poor fit]	–
CSc1nc2ccc(S(=O)(=O)Nc3c(C)n(C)n(-c4ccccc4)c3=O)cc2s1	inconclusive [inhibitor, partial curve, poor fit]	–
O=C(NCC(c1cccnc1)N1CCN(c2ccc(F)cc2)CC1)c1ccc(F)cc1 (stereo not drawn)	inconclusive [inhibitor, single point]	–
O=C(/C=C/c1cccc([N+](=O)[O-])c1)n1cnc2ccccc21	active: 2.59 µM	–
CCOc1ccc(NC(=O)c2sc3nc(-c4ccc(OC)cc4)cn3c2C)cc1	active: 16.4 µM	–

SMILES	Potency	activity change, negative = growth inhibition
CCCOc1ccc(/C=N/Nc2ccc(C(=O)O)cc2)c(OCCC)c1	inconclusive [inhibitor, partial curve]	–
CCOC(=O)Cc1c(C)nc2c(-c3ccc(Cl)cc3)c[nH]n2c1=O	inconclusive [inhibitor, single point]	–
COC(=O)c1cc2c(-c3ccccc3)cc3ccccn3c-2c1C(=O)OC	inconclusive [inhibitor, partial curve]	–
Cc1nc(CNC(=O)c2cc(COc3c(F)cccc3F)on2)cs1	inconclusive [inhibitor, partial curve]	–
COc1ccc(-c2cc(C(=O)N3CCN(S(=O)(=O)c4ccc(C)cc4)CC3)[nH]n2)cc1	inconclusive [inhibitor, single point]	–
COCCNC(=O)c1c(N)n(/N=C/c2ccc(F)cc2)c2nc3ccccc3nc12	inconclusive [inhibitor, partial curve]	–
Cc1ccccc1NC(=O)Cn1c(=O)n(CCCCCC(=O)NCc2ccc3c(c2)OCO3)c(=O)c2sccc21	inconclusive [inhibitor, single point]	–
Cc1nc2ccc(NC(=O)COc3cccc(F)c3)cc2s1	inconclusive [inhibitor, partial curve]	–
OC(c1ccc(F)c(F)c1)c1ncc(-c2cccc(C(F)(F)F)c2)[nH]1 (stereo not drawn)	inconclusive [inhibitor, single point]	–
COc1cccc(-c2nnc(NC(=O)CCS(=O)(=O)c3ccc(C)cc3)o2)c1	inconclusive [inhibitor, single point]	–
CCOC(=O)N1CCN(C(=O)C2CCN(S(=O)(=O)c3cc(OC)ccc3OC)CC2)CC1	inconclusive [inhibitor, partial curve]	–
CCCc1ccc(Oc2cc(N3CCOCC3)nc(-c3ccccc3)n2)cc1	active: 29.1 µM	–
O=C1CCCN1CCc1cccc2ccccc12	–	inconclusive: -33.2% [inhibitor]
COC(=O)C1=C(C)N(CC2CC2)C(=O)N[C@H]1c1ccc(Br)cc1	active: 23.1 µM	–
Cc1cc(NC(=O)CSc2nnc(-c3cccnc3)n2C2CCCCC2C)no1 (stereo not drawn)	–	inconclusive: -32.1% [inhibitor]
CCOC(=O)Nc1ccc2c(c1)N(C(=O)CCN1CCOCC1)c1ccccc1S2=O (stereo not drawn)	active: 3.66 µM	–
NC(=O)c1ccccc1N1CCCCC1	inconclusive [inhibitor, single point]	–
COc1ccc(CCN(Cc2cc3cc(C)cc(C)c3nc2Cl)C(=O)C2CC2)cc1	inconclusive [inhibitor, single point]	–
COc1ccc(Oc2ccc(N/C=C/C(=O)C(C)(C)C)cc2)cc1	–	inactive: -17.9%
CC(C)c1cccc(C(C)C)c1NC(=O)COC(=O)[C@H](C)NC(N)=O	–	inactive: 1.72%
O=C(CCCN1C(=O)C2CCCCN2C1=O)N1CCN(c2ccc([N+](=O)[O-])cc2)CC1 (stereo not drawn)	inconclusive [inhibitor, single point]	–
CS(=O)(=O)Nc1cccc(-c2nc(NCc3ccccc3)c3ccccc3n2)c1	inconclusive [inhibitor, partial curve]	–
CC1=NN(Cc2ccccc2)C(=O)C1C(c1ccccc1)C(C#N)C#N (stereo not drawn)	active: 20.6 µM	–

SMILES	Potency	activity change, negative = growth inhibition
COc1cc2nc(C#N)nc(N)c2cc1OC	inconclusive [inhibitor, single point]	–
CC(C)(CN1CCOCC1)NS(=O)(=O)c1ccccc1	–	inactive: -11.3%
Cc1cc(=O)n2[nH]c(-c3ccccc3Cl)cc2n1	inconclusive [inhibitor, partial curve, poor fit]	–
CCN(CC(=O)Nc1cc(Cl)ccc1C)C(=O)c1oc2ccc(OC)cc2c1C	inconclusive [inhibitor, single point]	–
Cc1ccc(NC(=O)Cn2cccc2)c(Br)c1	–	inactive: -0.0117%
CCOC(=O)c1cc2c(=O)n3ccccc3nc2n(CC(C)C)c1=NC(=O)C(C)Oc1ccccc1 (stereo not drawn)	inconclusive [inhibitor, full curve, poor fit]	–
CCOC(=O)C1CCCN(CCC(=O)Nc2ccc(C)cc2)C1 (stereo not drawn)	–	inactive: -4.67%
Cc1cccc(NC(=O)COC(=O)C(NC(=O)c2cccc(S(=O)(=O)N3CCOCC3)c2)C(C)C)c1 (stereo not drawn)	–	inactive: -11.5%
O=C(NCCc1c[nH]c2ccccc12)c1[nH]c(C(F)(F)F)nc1-c1ccccc1	inconclusive [inhibitor, partial curve]	–
O=c1nc2n(c3ccc([N+](=O)[O-])cc13)CCCCC2	–	inactive: 4.51%
COc1cccc(Nc2nc(C(N)CO)cs2)n1 (stereo not drawn)	inconclusive [inhibitor, single point]	–
Cn1c(O)c(N=Nc2ccc(F)cc2)c2ccccc21	–	inactive: 15.5%
CC(C)CN(C(=O)CSc1nc(N)cc(N)n1)C1CCS(=O)(=O)C1 (stereo not drawn)	–	inactive: 23.5%
COC(=O)[C@@]1(Cc2ccc(F)cc2)[C@H]2c3cc(C(=O)N4CCCC4)n(CCCNc4ncc(C(F)(F)F)cc4Cl)c3C[C@H]2CN1C(=O)c1ccccc1	inconclusive [inhibitor, single point]	–
CCn1c(=N)n(CC(=O)c2cccc([N+](=O)[O-])c2)c2ccccc21	inconclusive [inhibitor, single point]	–
CCOC(=O)c1sc(SC)c2c1CCCC2=O	–	inactive: -3.49%
Cc1ccc(S(=O)(=O)N2CCN(CC(=O)N/N=C\c3ccc(Cl)c([N+](=O)[O-])c3)CC2)cc1	inconclusive [inhibitor, single point]	–
COCCN1C(=O)N[C@@H](c2cccc(C(F)(F)F)c2)[C@H](C(=O)OC)[C@H]1C	–	inactive: -15%
CCc1ccccc1NC(=O)CCc1c(C)nc2cc(-c3ccccc3)nn2c1C	inconclusive [inhibitor, partial curve]	–
CCN1CCCC1CNC(=O)c1cnn(-c2nccc(-c3ccc(C)o3)n2)c1C1CC1 (stereo not drawn)	–	inactive: 1.23%
CCN(CC)C(=O)C1CCN(Cc2cn(C)nc2-c2ccc(Oc3ccccc3)cc2)CC1	inconclusive [inhibitor, single point]	–
Cc1ccc(Nc2ccc(N3CCN(C(=O)c4ccc([N+](=O)[O-])cc4Cl)CC3)nn2)cc1	active: 20.6 µM	–
